# Results taken from PubChem BioAssay AID504332 (National Center for Advancing Translational Sciences (NCATS), 2011).
# About 31,000 (8.9%) of roughly 350,000 compounds were called active. The inconclusive results got no clear call from the source; some entries with a clear call stand among them for comparison. Calls come from the whole dose curve; as a rule, active = well fitted inhibition curve with a large enough effect; inconclusive = small, poorly fitted or top-dose-only effect; inactive = no such curve, though single readings can be large or run the other way. A potency beside an inconclusive call is a rough fit, not a confirmed value. Some structures have more than one record in an assay (separate samples or runs), and their calls can disagree.
# Biological target: Histone-lysine N-methyltransferase EHMT2 (Homo sapiens) (UniProt Q96KQ7)
# UniProt Q96KQ7, sequence (Q96KQ7 whole entry, looked up): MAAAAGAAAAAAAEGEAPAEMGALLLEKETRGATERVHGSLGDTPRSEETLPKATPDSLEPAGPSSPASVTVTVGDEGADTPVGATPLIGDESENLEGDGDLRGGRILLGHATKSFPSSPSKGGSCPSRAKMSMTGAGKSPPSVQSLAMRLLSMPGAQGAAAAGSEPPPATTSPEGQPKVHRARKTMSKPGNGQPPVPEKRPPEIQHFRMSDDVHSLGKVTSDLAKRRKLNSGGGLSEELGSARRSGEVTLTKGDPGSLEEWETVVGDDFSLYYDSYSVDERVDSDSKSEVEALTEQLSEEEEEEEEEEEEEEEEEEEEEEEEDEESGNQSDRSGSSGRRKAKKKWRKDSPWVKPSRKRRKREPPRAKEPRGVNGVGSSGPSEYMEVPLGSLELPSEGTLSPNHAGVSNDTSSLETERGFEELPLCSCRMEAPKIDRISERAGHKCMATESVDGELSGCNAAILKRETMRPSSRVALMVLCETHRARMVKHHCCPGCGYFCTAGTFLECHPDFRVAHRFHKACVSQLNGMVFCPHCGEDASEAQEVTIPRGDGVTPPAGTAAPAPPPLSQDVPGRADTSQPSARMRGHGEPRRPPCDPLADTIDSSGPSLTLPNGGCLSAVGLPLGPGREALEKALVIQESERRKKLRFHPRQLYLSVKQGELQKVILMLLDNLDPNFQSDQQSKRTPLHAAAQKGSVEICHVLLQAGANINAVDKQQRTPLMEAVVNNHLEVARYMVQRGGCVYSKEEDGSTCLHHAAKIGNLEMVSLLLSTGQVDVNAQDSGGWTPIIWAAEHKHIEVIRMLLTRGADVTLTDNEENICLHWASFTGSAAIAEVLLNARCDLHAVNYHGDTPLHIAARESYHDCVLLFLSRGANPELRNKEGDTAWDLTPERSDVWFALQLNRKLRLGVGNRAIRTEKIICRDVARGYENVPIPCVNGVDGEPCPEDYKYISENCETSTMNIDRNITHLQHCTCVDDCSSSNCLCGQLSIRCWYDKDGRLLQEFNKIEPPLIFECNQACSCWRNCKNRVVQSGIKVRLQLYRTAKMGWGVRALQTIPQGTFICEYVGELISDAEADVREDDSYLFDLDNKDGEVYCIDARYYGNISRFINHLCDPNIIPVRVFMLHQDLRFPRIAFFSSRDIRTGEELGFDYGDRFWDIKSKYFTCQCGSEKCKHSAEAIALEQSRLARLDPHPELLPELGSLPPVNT
# Experiment: qHTS Assay for Inhibitors of Histone Lysine Methyltransferase G9a; note: nearly all actives have a fitted effect of over 75% in size
# Conditions: G9a H3K9 monomethylation, AlphaScreen, 2 h; activity, negative = inhibition: at 59 µM (top of the series) unless noted
# Method in brief: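 Step 1: enzyme (final 20 nM) with compound, 15 min RT. Step 2: substrate peptide 500 nM and SAM 20 uM, 2 h RT. Step 3: anti-H3K9me1 antibody and AlphaScreen beads, 10 min, then plate read.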
# % is set by controls: 0 for no effect and ±100 for the full control effect; potency is the fitted concentration of half-maximal effect; tags give direction and shape of the fitted curve.
SMILES,"activity, negative = inhibition",Potency
COc1cccc(Cn2c(=O)c(-c3cc(F)cc(F)c3)nc3cncnc32)c1,inactive: 3.21% [at 0.501 µM],
COc1ccc(C(=O)CNc2ccc(C)cc2C)cc1,,"inconclusive: 56.2 µM [inhibitor, partial curve, poor fit]"
COc1ccc(NS(=O)(=O)c2cc([N+](=O)[O-])ccc2N/N=C\c2c(C)[nH]c3ccccc23)cc1,,"inconclusive: 89.1 µM [inhibitor, single point]"
O=C(Cn1c(=S)nc2ccccn21)N1CCc2ccccc2C1,,active: 12.6 µM
CCOC(=O)C1(C)Oc2ccccc2C(c2ccc(OC)cc2)=C1C(=O)OC (stereo not given),,inactive
OC(COc1ccccc1)CN1CCC(Cc2ccccc2)CC1 (stereo not given),,inactive
CCOc1ccc(NC(=O)NCCCN2CCN(c3ccc(F)cc3)CC2)cc1,,"inconclusive: 11.2 µM [inhibitor, partial curve, poor fit]"
O=C1C(Nc2ccc(O)cc2)=C/C(=N/S(=O)(=O)c2cccs2)c2ccccc21,,active: 11.2 µM
Cc1cccc(N2CCN(c3cc(C)nc4c(-c5ccc(Cl)cc5)c(C)nn34)CC2C)c1 (stereo not given),,inactive
O=C(CC1Nc2ccccc2NC1=O)NCc1cccnc1 (stereo not given),,"inconclusive: 56.2 µM [inhibitor, partial curve, poor fit]"
Cc1ccc(CNC(=O)c2ccc3c(=O)[nH]c4c(C(=O)NCC5CCCO5)sc(=S)n4c3c2)cc1 (stereo not given),,"inconclusive: 35.5 µM [inhibitor, single point]"
CC1C(=O)N2CCCc3cc(NC(=O)C(=O)NCCc4ccc(F)cc4)cc1c32 (stereo not given),,"inconclusive: 56.2 µM [inhibitor, partial curve]"
Cc1nnc(SCc2ccc(Cl)cc2)c2cc3occc3n12,,active: 10 µM
CN(c1ccccc1)S(=O)(=O)c1ccc(C(=O)OCC(=O)NCc2ccco2)cc1,,"inconclusive: 100 µM [inhibitor, single point]"
CCOC(=O)[C@@H]1[C@H]2COc3ccccc3[C@H]2N2C(=O)N(c3ccc(Cl)cc3)C(=O)[C@]12C,,inactive
Nc1nc2c(c(=O)[nH]1)C(c1ccccc1)C1=C(N2)c2ccccc2C1=O (stereo not given),inconclusive: -58.1% [inhibitor],
COc1ccc(N2CCN(C(=O)c3oc4ccccc4c3NC(=O)Cc3cccc(OC)c3)CC2)cc1,,active: 39.8 µM
O=C(Nc1ccc(N2CCN(C(=O)c3cccs3)CC2)cc1)c1ccc([N+](=O)[O-])o1,,"inconclusive: 14.1 µM [inhibitor, partial curve]"
CSc1ccccc1C(=O)NCc1ccc2c(c1)OCO2,,inactive
Cc1cc(C(=O)OCC(=O)Nc2cc(C(F)(F)F)ccc2N2CCOCC2)c(C)o1,,"inconclusive: 79.4 µM [inhibitor, single point]"
CC(=O)N1CCCc2cc(S(=O)(=O)N(C)CC(=O)Nc3ccc(C)cc3C)ccc21,,inactive
Cc1cc(C)nc(NC(=O)C(C)N2C(=O)c3ccccc3C2=O)n1 (stereo not given),,inactive
COC(=O)c1ccc(NS(=O)(=O)c2cc3c4c(c2)CCC(=O)N4CCC3)cc1,inactive: 20.3% [at 2.33 µM],

SMILES,"activity, negative = inhibition",Potency
O=C1CN(C(=O)c2ccccc2F)C(c2ccccc2)c2cc(Cl)ccc2N1 (stereo not given),,inactive
COc1cc(SC#N)ccc1N=Cc1c(C)[nH]n(-c2cccc3ccccc23)c1=O,,"inconclusive: 8.91 µM [inhibitor, full curve, poor fit]"
Cc1noc(Cn2c(=O)c3ccccc3n(CC(=O)Nc3cccc(Cl)c3C)c2=O)n1,,inactive
COc1ccc([N+](=O)[O-])cc1N/C(=N/S(=O)(=O)c1ccccc1)c1ccccc1,,"inconclusive: 56.2 µM [inhibitor, partial curve]"
Cc1ccc2nc(SCC(=O)Nc3ccc(C(N)=O)cc3)[nH]c2c1,,active: 39.8 µM
CNC(=O)COC(=O)c1ccc(NC(=O)CC#N)cc1,,"inconclusive: 10 µM [inhibitor, partial curve]"
COc1ccc(-c2nnc(SCC(=O)Nc3sc4c(c3C#N)CCC4)n2CC2CCCO2)cc1 (stereo not given),,"inconclusive: 39.8 µM [inhibitor, single point]"
COC(=O)c1c(NC(=O)CSc2ccccc2N)sc(C)c1C,,"inconclusive: 4.47 µM [inhibitor, partial curve, poor fit]"
COC(=O)Cc1[nH]nc2c1C(c1cccc(OC)c1OC)C(C#N)=C(N)O2 (stereo not given),,"inconclusive: 2 µM [inhibitor, partial curve, poor fit]"
O=S(=O)(c1ccccc1)c1nc(Nc2cccc(O)c2)sc1Cl,,"inconclusive: 31.6 µM [inhibitor, single point]"
CCCCn1c(=N)n(CC(=O)c2ccc(OC)cc2)c2ccccc21,,"inconclusive: 28.2 µM [inhibitor, single point]"
N#Cc1nc(/C=C/c2ccc(F)cc2)oc1N1CCN(c2ccccc2)CC1,,"inconclusive: 2 µM [inhibitor, full curve]"
CC(=O)N1CCC2(CCN(Cc3ccc(C#N)cc3)CC2)CC1,inactive: -0.982% [at 12.7 µM],
CN(c1ccccc1)S(=O)(=O)c1cccc(NC(=O)CN2CCc3ccccc3C2)c1,,inactive
c1coc(-c2cc(C3CCNCC3)[nH]n2)c1,,"inconclusive: 89.1 µM [inhibitor, single point]"
CCCn1c2ccccc2c2cnn(CC(=O)N3CCC(C(=O)OCC)CC3)c(=O)c21,,inactive
CC(=O)Nc1ccc(SC[C@H](Cc2ccccc2)N2CCN(CCc3ccccc3)CCC2=O)cc1,,"inconclusive: 7.94 µM [inhibitor, single point]"
CCCCCOC(=O)C1[C@H]2C(=O)N(Cc3cccs3)C[C@]23C=C[C@H]1O3 (stereo not given in full),,inactive
OC(COC(c1ccccc1)c1ccccc1)CN1CCc2ccccc2C1 (stereo not given),,inactive
Cc1ccccc1-n1cc(-c2ccccc2)nc1SCC(=O)Nc1ccc(F)cc1,,"inconclusive: 31.6 µM [inhibitor, single point]"
CC1=C(CC(=O)O)c2cc(F)ccc2/C1=C\c1ccc(S(C)=O)cc1 (stereo not given),,active: 8.44 µM
CC(C)N1C(=O)S/C(=C\c2ccc(-c3ccc(Cl)c(C(=O)O)c3)o2)C1=O,,active: 39.8 µM
